Screen size: about 150,000 compounds; about 6,500 (4.3%) were called active. This list was built around the results that the source calls inconclusive (neither active nor inactive); the mix of calls is not that of the screen. The call rests on the fitted dose curve; in most records, active means well fitted inhibition curve with a large enough effect (not every such curve was filed as active); inconclusive means small, poorly fitted or top-dose-only effect, or another doubt; inactive means no such curve, though single readings can be large or run the other way. Potencies of inconclusive entries are left out as doubtful fits.
What follows are compounds tested against 15-hydroxyprostaglandin dehydrogenase [NAD(+)] (Homo sapiens) (UniProt P15428) (assay: qHTS Assay for Inhibitors of HPGD (15-Hydroxyprostaglandin Dehydrogenase)). Settings: purified HPGD, NADH fluorescence kinetic, PGE2 substrate; activity change, negative = inhibition: active compounds read low.
Chain of UniProt P15428 (P15428 whole entry, looked up): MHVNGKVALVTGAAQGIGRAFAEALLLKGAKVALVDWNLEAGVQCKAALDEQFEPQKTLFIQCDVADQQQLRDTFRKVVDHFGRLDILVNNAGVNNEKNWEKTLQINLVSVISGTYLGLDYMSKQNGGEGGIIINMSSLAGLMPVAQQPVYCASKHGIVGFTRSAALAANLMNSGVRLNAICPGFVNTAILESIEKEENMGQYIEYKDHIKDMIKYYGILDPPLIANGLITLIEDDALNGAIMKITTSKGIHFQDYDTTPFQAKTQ
Outline: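 NADH formation kinetics: reaction with 30 uM PGE2 and 1 mM NAD+ (final), 20 nM enzyme, Tris-HCl pH 8 with Tween 20, after 15 min compound preincubation at room temperature. Fluorescence change, last versus first of five reads.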
With `COc1cccc(Nc2nc3ccccc3nc2-n2nc(C)cc2C)c1` the Potency was inconclusive [inhibitor, partial curve]. For `Cc1cccc(NC(=O)CCSc2ccccn2)c1`, the Potency was active: 14.1 µM. With `O=C(O)c1ccc(N/N=C/c2cccc(F)c2)cc1` the Potency was inconclusive [inhibitor, partial curve]. For `CCc1ccc(C(=O)NCC2COc3ccccc3O2)o1` (centres undefined), the Potency was active: 17.8 µM. `Cc1cc(C)nc(NC2=NCC(=O)N2c2ccc(F)c(Cl)c2)n1` was tested, and the activity change, negative = inhibition was inactive: -2.65%. For `COc1ccc2cc3cc(C(=O)NCC4CCCO4)oc3nc2c1` (centres undefined), the Potency was inconclusive [inhibitor, partial curve]. For `COC(=O)CN1C(c2ccccc2)=Nc2ccc(Cl)cc2C1c1ccccc1` (centres undefined), the activity change, negative = inhibition was inactive: -8.28%. For `CCCOc1ncnc2c1[nH]c1ccccc12`, the Potency was inconclusive [inhibitor, partial curve]. With `CCCn1c(-c2ccc(F)cc2)nc2c(NC3CCN(Cc4ccccc4)CC3)nc(C)nc21` the Potency was inconclusive [inhibitor, partial curve]. With `COc1cccc(C2C(C(=O)c3cc4cccc(OC)c4o3)=C(O)C(=O)N2c2cc(C)on2)c1OC` (centres undefined) the activity change, negative = inhibition was inactive: -11.9%. In the case of `COc1ccc(-c2nc(C#N)c(NCc3cccnc3)o2)cc1OC`, the Potency is reported as inconclusive [inhibitor, partial curve]. For `N#C/C(=C\Nc1ccccc1SC(F)(F)F)c1nc(-c2ccc(Cl)cc2)cs1`, the activity change, negative = inhibition was inactive: -23%. `Cc1cccn2c(=O)c3cc(C(=O)NCC4CCCO4)c(=N)n(Cc4cccnc4)c3nc12` (centres undefined) was tested, and the Potency was inconclusive [inhibitor, partial curve]. In the case of `CCCc1nc(NC2CCCCC2)c(C#N)c2c1COC(C)(C)C2`, the Potency is reported as inconclusive [inhibitor, partial curve]. `Cc1ccnc(N2CCC(C(=O)Nc3ccc4c(c3)OCO4)CC2)n1` was tested, and the Potency was inconclusive [inhibitor, partial curve]. In the case of `CCc1nc2ccc(C(=O)O)cc2nc1CC`, the activity change, negative = inhibition is reported as inactive: -13.8%. In the case of `CCN(CC)c1cc(C)c2cc(NC(=O)CNC(C)=O)ccc2n1`, the Potency is reported as inconclusive [inhibitor, partial curve]. With `CCCc1cc(=O)oc2cc(OCc3nn[nH]n3)ccc12` the Potency was inconclusive [inhibitor, partial curve]. With `CCOC(=O)c1cc([N+](=O)[O-])c([N+](=O)[O-])cc1NC(C)=O` the Potency was active: 22.4 µM. In the case of `COC(=O)c1cc(C#N)c(Oc2ccc(F)cc2)nc1C`, the Potency is reported as inconclusive [inhibitor, single point]. With `N#Cc1ccsc1NC(=O)COc1ccc(-c2nnco2)cc1` the activity change, negative = inhibition was inactive: -21.4%. With `CCOc1ccc(NC(=O)CSC(N)=O)cc1` the activity change, negative = inhibition was inactive: -16.4%. For `CCn1cc(C(=O)NCc2ccccn2)c(=O)c2cc(S(=O)(=O)N3CCCCC3)ccc21`, the Potency was inconclusive [inhibitor, partial curve]. With `Cc1cc(C)cc(NC(=S)NCC2CCCO2)c1` (centres undefined) the Potency was active: 14.1 µM. `COc1ccc2[nH]c(=O)c(C(c3nnnn3C(C)(C)C)N(Cc3ccco3)CC3CCCO3)cc2c1` (centres undefined) was tested, and the Potency was inconclusive [inhibitor, partial curve]. With `CCOc1ccc(NC2C=CS(=O)(=O)C2)cc1` (centres undefined) the activity change, negative = inhibition was inactive: -8.57%. With `O=c1nc2n(c3ccccc13)Cc1ccccc1-2` the Potency was inconclusive [inhibitor, partial curve]. With `CCN(CC)C(C)CN1c2ccccc2Sc2ccccc21` (centres undefined) the Potency was inconclusive [inhibitor, partial curve, poor fit]. In the case of `C/C=C/CSc1nc2c(c(=O)[nH]c(=O)n2C)n1C(C)C`, the activity change, negative = inhibition is reported as inactive: -16.5%. With `Cc1cc(C)n2c(Br)c(CSc3nc4ccccc4o3)nc2n1` the Potency was inconclusive [inhibitor, partial curve]. In the case of `Cc1ccc2c(c1)N(C(=O)CCC(=O)N1CCc3ccccc3C1)CCO2`, the Potency is reported as active: 14.1 µM. For `CC(C)Cn1cnc2c1c(=O)n(CC(=O)Nc1ccc3c(c1)OCO3)c(=O)n2Cc1ccccc1`, the activity change, negative = inhibition was inactive: -7.48%. With `O[C@@H](c1cc([C@@]23C[C@H]4CC[C@@H]2C[C@H](C4)C3)nc2c(Cl)cc(Cl)cc12)C1CCCCN1` (some centres undefined) the activity change, negative = inhibition was inactive: -4.63%. For `CCOC(=O)C1CCCN(Cc2ccc(OC)cc2OC)C1` (centres undefined), the activity change, negative = inhibition was inactive: 6.71%. `CCn1c(SCc2ccc(C#N)cc2)nnc1-c1ccc(S(=O)(=O)N2CCCCC2)cc1` was tested, and the Potency was inconclusive [inhibitor, partial curve]. In the case of `Cc1cccc(S(=O)(=O)c2c(N)n(/N=C/c3cccnc3)c3nc4ccccc4nc23)c1`, the Potency is reported as inconclusive [inhibitor, partial curve]. In the case of `CC1CCN(C(=O)c2cc3ccccc3c(=O)o2)CC1`, the Potency is reported as active: 25.1 µM. In the case of `CC1(C)Cc2c(c(-c3ccco3)nc3n[nH]c(N)c23)CO1`, the Potency is reported as inconclusive [inhibitor, partial curve, poor fit]. For `CCN(CC)c1ccc(/C=N/NC(=O)c2ccc(O)cc2)cc1`, the Potency was inconclusive [inhibitor, partial curve]. In the case of `CC(C)CNC(=O)CCCc1ccccc1`, the Potency is reported as active: 14.1 µM. With `O=C(/C=C/c1c[nH]c2ccccc12)c1ccccc1` the Potency was active: 15.8 µM. With `CC1CN(S(=O)(=O)c2cccc(C(=O)OCc3cc(=O)oc4cc(O)ccc34)c2)CC(C)O1` (centres undefined) the Potency was inconclusive [inhibitor, partial curve]. `C/C(=N\NC(=O)c1csc(C)c1C)c1ccc(Cl)s1` was tested, and the Potency was inconclusive [inhibitor, full curve]. In the case of `N=C1C(c2nc3ccccc3c(=O)[nH]2)=C(O)CN1c1ccccc1`, the Potency is reported as inconclusive [inhibitor, full curve]. `CCOc1c2ccc(C(=O)NCc3ccco3)cc2nn1CC` was tested, and the Potency was inconclusive [inhibitor, partial curve]. `Cc1nn(-c2ccccc2)c(Cl)c1/C=N/Nc1ccc(Cl)c(C(=O)O)c1` was tested, and the Potency was inconclusive [inhibitor, partial curve]. For `CN(C)/C=N/c1sc2c(c1C#N)CCC2`, the Potency was active: 25.1 µM. For `CCOC(=O)c1c(N)sn(-c2ccccc2C)c1=S`, the Potency was active: 11.2 µM. In the case of `COc1ccc(Nc2oc(COc3ccccc3F)nc2C#N)cc1`, the Potency is reported as inconclusive [inhibitor, single point]. With `CCOC(=O)CSc1nc(C2CC2)cc(-c2ccc(Cl)cc2)c1C#N` the Potency was inconclusive [inhibitor, partial curve]. In the case of `CC(=O)N(C)c1ccc(NC(=O)c2ccc([N+](=O)[O-])cc2Cl)cc1`, the activity change, negative = inhibition is reported as inactive: -5.37%. With `NC(=O)CCn1nc(-c2ccccc2)c2ccccc2c1=O` the activity change, negative = inhibition was inactive: -7.38%. For `CC(C)NC(NC(=O)Cc1ccccc1)C(Cl)(Cl)Cl` (centres undefined), the Potency was inconclusive [inhibitor, partial curve]. With `COc1cccc([C@@H]2Oc3ccc(OC)cc3C(=O)[C@H]2OC(=O)NCc2ccc3c(c2)OCO3)c1` the Potency was inconclusive [inhibitor, partial curve]. With `O=C(NC1(C(F)(F)F)NC(=O)N(Cc2ccco2)C1=O)c1cccnc1` (centres undefined) the activity change, negative = inhibition was inactive: -4.67%. In the case of `CCn1c(SCc2nnc(-c3ccccc3)o2)nnc1-c1ccc(S(=O)(=O)N2CCCC2)cc1`, the Potency is reported as inconclusive [inhibitor, partial curve]. For `O=c1c2ccccc2nc2n1CCN2Cc1ccc(Cl)cc1`, the Potency was inconclusive [inhibitor, partial curve]. With `Cc1ccccc1-n1c(-c2ccco2)n[nH]c1=S` the Potency was inconclusive [inhibitor, partial curve]. `COC(=O)c1sc(NC(=O)CSc2nncs2)c(C(=O)OC)c1C` was tested, and the Potency was active: 2.82 µM. With `CCc1cc(=O)oc2cc(OCC(=O)N3CCCc4ccccc43)ccc12` the Potency was inconclusive [inhibitor, partial curve]. For `O=C(NCc1ccco1)c1ccc(N2CCCCC2)c([N+](=O)[O-])c1`, the Potency was active: 31.6 µM. With `O=C(CCCn1c(=S)[nH]c2ccccc2c1=O)N1CCCCC1` the Potency was active: 10 µM. With `CCOC(=O)c1nn(-c2ccc(Br)cc2)cc1C(=O)c1cccc2ccccc12` the activity change, negative = inhibition was inactive: -17.8%. In the case of `COC(=O)c1sccc1NC(=O)c1cc(-c2ccc(C)cc2C)nc2ccccc12`, the Potency is reported as inconclusive [inhibitor, single point]. In the case of `Cc1ccc(NC(=O)COC(=O)Cn2cnc3ccccc32)cc1S(=O)(=O)N(C)C`, the activity change, negative = inhibition is reported as inactive: -2.08%. For `CCCN1C(=O)/C(=C/c2cc(C)n(C)c2C)SC1=Nc1ccc(OC)cc1`, the activity change, negative = inhibition was inactive: -17.2%. With `CCCCCCn1c(-c2ccco2)nc2oc3cc(OC)ccc3c(=O)c2c1=O` the Potency was inconclusive [inhibitor, partial curve]. For `CCNC(=O)c1ccc(C2SCC(=O)N2CCc2ccccc2)cc1` (centres undefined), the Potency was active: 22.4 µM. For `CCCOC(=O)c1c(NC(=O)/C=C/c2cnn(C)c2C)sc(C(=O)OC)c1C`, the Potency was inconclusive [inhibitor, partial curve]. With `CC(C)C(=O)N(Cc1cc2ccccc2[nH]c1=O)C(C)(C)C` the activity change, negative = inhibition was inactive: -13.4%. `CCOC(=O)c1c(NC(=S)Nc2ccccc2)sc2c1CCN(C)C2` was tested, and the Potency was inconclusive [inhibitor, single point]. For `COc1ccc(-c2nc(C)sc2C)cc1`, the Potency was active: 28.2 µM. In the case of `C=CCc1cccc(/C=N/NC(=O)CNc2ccccc2)c1O`, the activity change, negative = inhibition is reported as inactive: -15.7%. `CCOc1ccc(S(=O)(=O)Nc2ccccc2C(=O)NCC2CCCO2)cc1` (centres undefined) was tested, and the Potency was inconclusive [inhibitor, partial curve].

Source: PubChem BioAssay AID894 (National Center for Advancing Translational Sciences (NCATS), 2007)
On the % scale 0 is the no-effect control and ±100 the full control effect; potency means the concentration at half of the fitted maximal effect; tags describe the fitted curve by direction and shape.
